For one test, the target named is Flag-EEF1A1 (UniProt P68104). The test can be described thus: co-IP; HEK293T cells co-transfected with Flag- and HA-tagged plasmids; RIPA lysis buffer (50 mM Tris-HCl pH 7.4, 150 mM NaCl, 1% NP-40, 1 mM EDTA, 5% glycerol); antibody (anti-Flag, anti-HA or anti-NLRP3) at 4 °C overnight, protein G-agarose 2 h, washes with 300 mM NaCl; immunoblot. On the technique in general: In western blotting, separated proteins are transferred to a membrane and probed.

Protein sequences, listed by entry. Tags and fused reporters are not part of them.
UniProt P68104: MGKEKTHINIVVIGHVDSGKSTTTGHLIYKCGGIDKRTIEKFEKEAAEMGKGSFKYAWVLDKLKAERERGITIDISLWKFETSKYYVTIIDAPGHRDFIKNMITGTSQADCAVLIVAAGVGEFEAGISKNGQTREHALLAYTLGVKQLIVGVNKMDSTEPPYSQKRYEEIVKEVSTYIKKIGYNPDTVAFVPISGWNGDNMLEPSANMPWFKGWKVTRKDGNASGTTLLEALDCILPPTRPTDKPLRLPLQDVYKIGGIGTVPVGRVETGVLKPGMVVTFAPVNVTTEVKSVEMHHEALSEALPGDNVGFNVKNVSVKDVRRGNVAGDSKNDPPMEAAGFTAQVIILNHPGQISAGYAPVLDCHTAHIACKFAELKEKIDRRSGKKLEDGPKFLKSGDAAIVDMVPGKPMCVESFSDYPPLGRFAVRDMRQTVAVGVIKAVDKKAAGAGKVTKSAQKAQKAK
UniProt Q96P20: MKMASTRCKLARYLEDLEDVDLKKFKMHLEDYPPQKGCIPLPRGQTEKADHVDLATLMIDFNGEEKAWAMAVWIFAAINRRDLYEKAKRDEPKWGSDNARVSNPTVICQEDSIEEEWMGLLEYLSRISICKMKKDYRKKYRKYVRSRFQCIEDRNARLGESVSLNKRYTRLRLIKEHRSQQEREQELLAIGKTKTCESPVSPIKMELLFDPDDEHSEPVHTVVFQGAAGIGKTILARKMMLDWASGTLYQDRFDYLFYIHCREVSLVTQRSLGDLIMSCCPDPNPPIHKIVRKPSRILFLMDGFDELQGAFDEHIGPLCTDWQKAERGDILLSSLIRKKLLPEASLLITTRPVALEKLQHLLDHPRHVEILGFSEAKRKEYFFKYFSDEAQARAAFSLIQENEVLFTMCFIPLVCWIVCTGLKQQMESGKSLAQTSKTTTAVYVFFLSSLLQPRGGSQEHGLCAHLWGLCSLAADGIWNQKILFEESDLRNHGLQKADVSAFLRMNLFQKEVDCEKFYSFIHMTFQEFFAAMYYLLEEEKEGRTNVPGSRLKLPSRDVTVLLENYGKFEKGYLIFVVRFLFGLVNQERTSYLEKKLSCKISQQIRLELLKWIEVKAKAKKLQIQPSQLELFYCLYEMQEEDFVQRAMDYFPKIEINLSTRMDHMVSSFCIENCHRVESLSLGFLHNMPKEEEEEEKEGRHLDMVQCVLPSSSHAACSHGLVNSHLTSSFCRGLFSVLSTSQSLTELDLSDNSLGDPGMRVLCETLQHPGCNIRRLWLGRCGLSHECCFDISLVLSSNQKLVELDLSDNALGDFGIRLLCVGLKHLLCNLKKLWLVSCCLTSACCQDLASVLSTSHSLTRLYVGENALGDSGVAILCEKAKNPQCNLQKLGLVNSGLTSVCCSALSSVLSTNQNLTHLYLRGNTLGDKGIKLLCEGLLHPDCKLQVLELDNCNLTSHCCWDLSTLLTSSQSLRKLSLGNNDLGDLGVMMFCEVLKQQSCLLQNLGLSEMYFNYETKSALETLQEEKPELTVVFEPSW
UniProt Q8TDX7: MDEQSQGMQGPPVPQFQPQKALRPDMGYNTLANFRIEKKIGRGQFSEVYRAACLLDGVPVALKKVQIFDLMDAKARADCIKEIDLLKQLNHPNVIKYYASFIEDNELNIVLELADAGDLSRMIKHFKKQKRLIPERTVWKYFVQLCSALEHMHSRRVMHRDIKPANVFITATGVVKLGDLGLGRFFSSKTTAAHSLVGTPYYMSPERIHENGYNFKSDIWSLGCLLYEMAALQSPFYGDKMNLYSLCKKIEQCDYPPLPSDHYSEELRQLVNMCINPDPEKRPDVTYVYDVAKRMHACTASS

Test [1] has as its target T1, Flag-SLC25A3 (not stated (human or mouse cDNA cloned)) (UniProt Q00325).
T1 sequence: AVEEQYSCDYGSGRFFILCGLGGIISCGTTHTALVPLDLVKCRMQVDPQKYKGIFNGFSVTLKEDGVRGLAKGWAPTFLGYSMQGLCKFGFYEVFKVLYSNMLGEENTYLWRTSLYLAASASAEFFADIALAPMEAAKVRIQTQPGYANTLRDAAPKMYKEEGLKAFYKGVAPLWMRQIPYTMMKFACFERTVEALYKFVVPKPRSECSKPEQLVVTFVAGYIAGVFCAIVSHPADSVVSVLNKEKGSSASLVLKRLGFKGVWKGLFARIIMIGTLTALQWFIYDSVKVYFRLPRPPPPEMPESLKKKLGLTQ
Described as above.

The target in test [2] is Flag-NLRP3 (UniProt Q96P20). The test is described as follows: co-IP; competition: HEK293T cells with Flag-NLRP3 and Flag-NEK7 plus Vector-HA or HA-SLC25A3, or Flag-NLRP3 and HA-SLC25A3 plus Vector-Flag or Flag-NEK7; IgG (rabbit) or anti-NLRP3 antibody; immunoblot.
The target of a further test is T2, Flag-AIM2 (UniProt O14862).
T2 sequence: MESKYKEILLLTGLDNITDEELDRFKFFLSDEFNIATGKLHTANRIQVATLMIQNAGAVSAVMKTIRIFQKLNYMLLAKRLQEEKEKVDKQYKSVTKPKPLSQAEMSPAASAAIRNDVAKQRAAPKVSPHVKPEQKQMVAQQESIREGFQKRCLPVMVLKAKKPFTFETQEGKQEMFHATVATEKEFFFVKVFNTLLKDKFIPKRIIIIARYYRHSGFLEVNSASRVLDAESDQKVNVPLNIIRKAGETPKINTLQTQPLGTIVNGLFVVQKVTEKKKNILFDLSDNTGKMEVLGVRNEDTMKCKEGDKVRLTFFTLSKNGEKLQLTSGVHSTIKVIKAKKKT
The test is described as follows: co-IP; HEK293T cells co-transfected with Flag- and HA-tagged plasmids; RIPA lysis buffer (50 mM Tris-HCl pH 7.4, 150 mM NaCl, 1% NP-40, 1 mM EDTA, 5% glycerol); antibody (anti-Flag, anti-HA or anti-NLRP3) at 4 °C overnight, protein G-agarose 2 h, washes with 300 mM NaCl; immunoblot.

In another test the target is Flag-NEK7 (UniProt Q8TDX7). Described as above.
Test [3] has as its target Flag-NLRP3 (UniProt Q96P20). The test is described as above.
The target of test [4] is NLRP3, endogenous in THP-1 derived macrophages (human (endogenous in THP-1)) (UniProt Q96P20). The test can be described thus: condition: only without the stimulators of NLRP3 inflammasome; co-IP; endogenous proteins of THP-1 derived macrophages without the stimulators of the NLRP3 inflammasome (LPS-primed, ATP 0 min); IgG, anti-NLRP3 or anti-SLC25A3 antibody; immunoblot.
Test [5] has the same target. The test is described as follows: co-IP; endogenous proteins of THP-1 derived macrophages after stimulation (LPS then ATP 10-60 min; LPS plus nigericin, with or without NSA, disulfiram or acetylcysteine; Salmonella at different time points); IgG, anti-NLRP3 or anti-SLC25A3 antibody; RIPA buffer, 4 °C overnight; immunoblot.

This passage reports binding results from paper PMC11067542.

These are yes or no findings as the source states them, for the method shown. Binding seen in cells or lysates may run through a third protein. Some results given as binding are weak or reduced against the parent protein; the word gives no strength. For some assays here: Where a sequence is shown, tags or fusion partners need not be part of it.

For HA-NLRP3 (from UniProt Q96P20 1-1036), the binding result (with Flag-EEF1A1; in test [1]) was “binds” throughout.

B1: HA-SLC25A3 (protein, UniProt Q00325 50-362)
chain: AVEEQYSCDYGSGRFFILCGLGGIISCGTTHTALVPLDLVKCRMQVDPQKYKGIFNGFSVTLKEDGVRGLAKGWAPTFLGYSMQGLCKFGFYEVFKVLYSNMLGEENTYLWRTSLYLAASASAEFFADIALAPMEAAKVRIQTQPGYANTLRDAAPKMYKEEGLKAFYKGVAPLWMRQIPYTMMKFACFERTVEALYKFVVPKPRSECSKPEQLVVTFVAGYIAGVFCAIVSHPADSVVSVLNKEKGSSASLVLKRLGFKGVWKGLFARIIMIGTLTALQWFIYDSVKVYFRLPRPPPPEMPESLKKKLGLTQ
Regarding B1, the binding entry in the test with Flag-NLRP3 [2] was “binds”; in the test with Flag-AIM2, “no binding”; with Flag-NEK7, “no binding”; with Flag-NLRP3 [3], “binds”.

B2: SLC25A3, endogenous in THP-1 derived macrophages (protein, UniProt Q00325 50-362)
chain: AVEEQYSCDYGSGRFFILCGLGGIISCGTTHTALVPLDLVKCRMQVDPQKYKGIFNGFSVTLKEDGVRGLAKGWAPTFLGYSMQGLCKFGFYEVFKVLYSNMLGEENTYLWRTSLYLAASASAEFFADIALAPMEAAKVRIQTQPGYANTLRDAAPKMYKEEGLKAFYKGVAPLWMRQIPYTMMKFACFERTVEALYKFVVPKPRSECSKPEQLVVTFVAGYIAGVFCAIVSHPADSVVSVLNKEKGSSASLVLKRLGFKGVWKGLFARIIMIGTLTALQWFIYDSVKVYFRLPRPPPPEMPESLKKKLGLTQ
Regarding B2, the binding entry is “no binding” in test [4] and “binds” in test [5].
